Experimental data reported in paper PMC11151825 (RSC Chemical Biology, 2024).
Bridge positions count the residues as written; N and C are the ends. Ends that are not written are not given here. Peptide text beside a SMILES is read from it.

Experiments:
κ-opioid receptor (KOR) [1] = target: T1, κ-opioid receptor (KOR) (Mus musculus, UniProt P33534); experiment: cell-based; type: cell-based; settings: for Emax: HEK293
κ-opioid receptor (KOR) [2] = target: T1, κ-opioid receptor (KOR); experiment: biochemical
Procedure: Section 6: KOR pharmacology
HEK293 cells were cultured in Dulbecco’s modified Eagle medium (DMEM) containing 10% fetal bovine serum and 50
U/mL penicillin and streptomycin and were grown at 37 °C and 5% CO2. The HEK293 cell line stably expressing mouse
KOR-EGFP was generated by geneticin disulfate (0.8 mg/mL of G418, ROTH, Austria) selection and flow cytometry to
select cells for stable cell line propagation. Positive clones were identified by radioligand binding studies as previously
Radioligand Competition Binding Assays
Membranes were prepared from HEK293 cells stably expressing the KOR as previously described.2 Radioligand binding
studies were carried out in duplicate using standard binding buffer containing 50 mM Tris−HCl (pH 7.4), 10 mM MgCl2,
and 0.1% BSA. For competition binding, 75 μL each of [3H]-diprenorphine (1 nM final), peptide solution (4×), and
membrane preparations (7 μg/assay) was incubated in the standard binding buffer, and binding reactions were
incubated for 1 h at 37 °C. Termination of reactions was performed by rapid filtration onto a 0.1% polyethylenimine-
soaked GF/C glass fiber filter with a Skatron cell harvester.
Functional cAMP assay was conducted in triplicate using HEK293 cells stably expressing the mouse KOR according to the
manufacturer’s protocol with slight modifications. Briefly, 2000 cells per 5 μL per well were seeded into a white 384-
well plate and incubated with 5 μL of logarithmically spaced concentrations of peptide solutions prepared (2×) in 1×
stimulation buffer and forskolin (10 μM final). The reaction mixture was incubated at 37 °C for 30 min followed by
addition of Europium cryptate-labeled cAMP and cAMP d2-labeled antibodies (5 μL of each). After incubation for 1 h at
room temperature, cAMP quantification was measured by homogenous time-resolved fluorescence resonance energy
transfer on a Flexstation 3 (Molecular Devices, San Jose, USA) using a ratio of 665/620 nm.

[3] = target: trypsin from bovine pancreas (Bos taurus, UniProt P00760); settings: for trypsin inhibition (in words): pH 7.8, 37 °C

T1 sequence (P33534 whole entry): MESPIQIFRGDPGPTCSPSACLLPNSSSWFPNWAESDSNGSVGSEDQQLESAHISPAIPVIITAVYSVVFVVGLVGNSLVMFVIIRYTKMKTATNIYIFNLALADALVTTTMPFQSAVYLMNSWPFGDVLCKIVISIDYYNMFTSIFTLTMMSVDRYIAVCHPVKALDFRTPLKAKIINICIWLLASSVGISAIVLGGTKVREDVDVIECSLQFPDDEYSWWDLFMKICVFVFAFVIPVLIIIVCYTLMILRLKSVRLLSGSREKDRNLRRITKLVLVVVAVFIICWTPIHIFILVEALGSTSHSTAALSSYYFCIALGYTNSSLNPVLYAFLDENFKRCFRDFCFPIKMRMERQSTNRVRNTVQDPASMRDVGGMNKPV

Compound	Emax (κ-opioid receptor (KOR) [1]) [%]	Ki (κ-opioid receptor (KOR) [2]) [nM]	EC50 (κ-opioid receptor (KOR) [1]) [nM]	agonist activity at the κ-opioid receptor (in words) (κ-opioid receptor (KOR) [1])	trypsin inhibition (in words) [3]	inhibition of trypsin ([3]; n=3) [%]
CC[C@H](C)[C@H](NC(=O)[C@H](CCCNC(=N)N)NC(=O)[C@H](CCCNC(=N)N)NC(=O)[C@H](CC(C)C)NC(=O)[C@H](Cc1ccccc1)NC(=O)CNC(=O)CNC(=O)[C@@H](N)Cc1ccc(O)cc1)C(=O)N[C@@H](CCCNC(=N)N)C(=O)N1CCC[C@H]1C(=O)N[C@@H](CCCCN)C(=O)N[C@@H](CC(C)C)C(=O)N[C@@H](CCCCN)C(=O)O [Dynorphin A 1–13, dynorphin A (1–13), reference compound]	100	–	–	–	–	–
CC[C@H](C)[C@@H]1NC(=O)[C@H](CCCNC(=N)N)NC(=O)[C@H](CCCNC(=N)N)NC(=O)[C@H](CC(C)C)NC(=O)[C@H](Cc2ccccc2)NC(=O)CNC(=O)CNC(=O)[C@H](Cc2ccc(O)cc2)NC(=O)[C@H](CC(N)=O)NC(=O)[C@@H]2CSSC[C@@H]3NC(=O)[C@H](C(C)C)NC(=O)[C@@H]4CCCN4C(=O)[C@H](Cc4c[nH]c5ccccc45)NC(=O)[C@H](CO)NC(=O)[C@@H]4CSSC[C@H](NC(=O)[C@H]([C@@H](C)O)NC(=O)[C@H](CCC(N)=O)NC(=O)CNC(=O)[C@H](CSSC[C@H](NC(=O)CNC(=O)[C@H](CCCCN)NC(=O)[C@H](CC(C)C)NC(=O)[C@H](CCCCN)NC(=O)[C@@H]5CCCN5C(=O)[C@H](CCCNC(=N)N)NC1=O)C(=O)N[C@@H]([C@@H](C)O)C(=O)N4)NC(=O)[C@H](C(C)C)NC(=O)[C@@H]1CCCN1C(=O)[C@H](CC(C)C)NC(=O)CNC(=O)[C@H](CC(N)=O)NC(=O)[C@H](CCCNC(=N)N)NC(=O)[C@H]([C@@H](C)O)NC3=O)C(=O)N[C@@H](C(C)C)C(=O)NCC(=O)NCC(=O)N[C@@H]([C@@H](C)O)C(=O)N2 [ΔL3[E3Q]kB1-dynA] (cyclo(CGQTCVGGTCNYGGFLRRIRPKLKGCTCSWPVCTRNGLPV); disulfide 1-26, 5-28, 10-33 (inferred); ring closure inferred)	109 ± 27.4	1.4 ± 0.9	28 ± 9.8	full agonist activity	–	–
CC[C@H](C)[C@@H]1NC(=O)[C@H](CCCNC(=N)N)NC(=O)[C@H](CCCNC(=N)N)NC(=O)[C@H](CC(C)C)NC(=O)[C@H](Cc2ccccc2)NC(=O)CNC(=O)CNC(=O)[C@H](Cc2ccc(O)cc2)NC(=O)[C@H](CO)NC(=O)[C@@H]2CSSC[C@@H]3NC(=O)[C@H]([C@@H](C)O)NC(=O)[C@H](CCC(N)=O)NC(=O)CNC(=O)[C@@H]4CSSC[C@H](NC(=O)CNC(=O)[C@@H]5CCCN5C(=O)[C@H]([C@@H](C)O)NC(=O)[C@H](CC(N)=O)NC(=O)[C@H](CSSC[C@H](NC(=O)[C@H](C(C)C)NC(=O)[C@H](CCCCN)NC(=O)[C@H](CC(C)C)NC(=O)[C@H](CCCCN)NC(=O)[C@@H]5CCCN5C(=O)[C@H](CCCNC(=N)N)NC1=O)C(=O)N[C@@H]([C@@H](C)O)C(=O)N[C@@H](CCCNC(=N)N)C(=O)N[C@@H](CC(N)=O)C(=O)NCC(=O)N[C@@H](CC(C)C)C(=O)N1CCC[C@H]1C(=O)N[C@@H](C(C)C)C(=O)N4)NC(=O)[C@H]([C@@H](C)O)NC(=O)CNC(=O)CNC(=O)[C@H](C(C)C)NC3=O)C(=O)N[C@@H]([C@@H](C)O)C(=O)N2 [ΔL5[E3Q]kB1-dynA] (cyclo(CGQTCVGGTCNTPGCTCSYGGFLRRIRPKLKVCTRNGLPV); disulfide 1-15, 5-17, 10-33 (inferred); ring closure inferred)	128 ± 21	3.2 ± 1.7	112 ± 68.2	full agonist activity	–	–
CC[C@H](C)[C@@H]1NC(=O)[C@H](CCCNC(=N)N)NC(=O)[C@H](CCCNC(=N)N)NC(=O)[C@H](CC(C)C)NC(=O)[C@H](Cc2ccccc2)NC(=O)CNC(=O)CNC(=O)[C@H](Cc2ccc(O)cc2)NC(=O)[C@H]([C@@H](C)O)NC(=O)[C@@H]2CSSC[C@@H]3NC(=O)[C@H]([C@@H](C)O)NC(=O)CNC(=O)CNC(=O)[C@H](C(C)C)NC(=O)[C@@H]4CSSC[C@H](NC(=O)[C@H]([C@@H](C)O)NC(=O)[C@H](CSSC[C@H](NC(=O)[C@H](C(C)C)NC(=O)[C@H](CCCCN)NC(=O)[C@H](CC(C)C)NC(=O)[C@H](CCCCN)NC(=O)[C@@H]5CCCN5C(=O)[C@H](CCCNC(=N)N)NC1=O)C(=O)NCC(=O)N[C@@H](CCC(N)=O)C(=O)N[C@@H]([C@@H](C)O)C(=O)N4)NC(=O)CNC(=O)[C@@H]1CCCN1C(=O)[C@H]([C@@H](C)O)NC(=O)[C@H](CC(N)=O)NC3=O)C(=O)N[C@@H](CO)C(=O)N[C@@H](Cc1c[nH]c3ccccc13)C(=O)N1CCC[C@H]1C(=O)N[C@@H](C(C)C)C(=O)N2 [ΔL6[E3Q]kB1-dynA] (cyclo(CGQTCVGGTCNTPGCTCSWPVCTYGGFLRRIRPKLKV); disulfide 1-15, 5-17, 10-22 (inferred); ring closure inferred)	139 ± 20.2	6.2 ± 4.2	68.8 ± 23.1	full agonist activity	No trypsin	–
VCGQTCVGGTCNTPGCTCSWPVCT (also: bicyclic or more (positions not given here)) [∆L6[E3Q]kB1]	–	–	–	–	No trypsin	–
c-GCTKSIPPICGVCGQTCVGGTCNTPGCTCSWPVCT (bicyclic or more) [ΔL6[E3Q]kB1-SFTI]	–	–	–	–	–	~45
